# Laboratory results: PubChem BioAssay AID686979 (National Center for Advancing Translational Sciences (NCATS), 2013)
# Several values for one entry are separate records, joined by “and”; a condition that tells them apart may be missing. Identical values can stand only once. The campaign covered roughly 420,000 compounds. About 50,000 (12%) were called active. Inconclusive results, whose numbers are uncertain, are shown with a selection of clear calls. Calls follow the shape of the dose curve; as a rule, active = well fitted inhibition curve with a large enough effect; inconclusive = small, poorly fitted or top-dose-only effect; inactive = flat fitted curve, though single readings scatter. Potencies beside an inconclusive call are fits to weak or partial responses and may not hold up.
# Test: qHTS for Inhibitors of human tyrosyl-DNA phosphodiesterase 1 (TDP1): qHTS in cells in presence of CPT; also: nearly all actives have a fitted effect of over 55% in size
# Conditions: chicken DT40 Tdp1-/-;hTDP1 cells + 20 nM CPT, ATP luminescence, 48 h; series mostly up to 46.2 µM
# In short: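 Chicken DT40 Tdp1-/- cells complemented with human TDP1, 400 cells/well, exposed to compounds plus 20 nM camptothecin for at least 48 h at 37 C; viability read as ATP content by CellTiter-Glo luminescence.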
# Potency is read from the fitted curve at half-maximal effect; tags tell the direction and shape of the fitted curve.
row,Compound,Potency
1,CC(C)n1c(-c2cccnc2)nc2cnccc21,"inconclusive: 20 µM [inhibitor, single point]"
2,O=C(NCCn1cccn1)c1ccc(OC2CCN(CCc3ccccc3)CC2)cc1,inactive
3,O=C(NCCCN1CCN(c2ccccc2F)CC1)c1cc2c(s1)-c1ccccc1OC2,"inconclusive: 25.9 µM [inhibitor, single point]"
4,O=C(COc1ccc(Br)cc1)Nc1ccc(Cc2ccncc2)cc1,inactive
5,CCCCCCc1cc2cc(S(=O)(=O)c3ccc(C)cc3)c(=O)oc2cc1O,"inconclusive: 29.1 µM [inhibitor, single point]"
6,O=C(CSc1nc2ccccc2c(=O)n1CC1CCCO1)Nc1ccc(F)cc1 (configuration not stated),"inconclusive: 25.9 µM [inhibitor, single point]"
7,O=c1c2ccccc2sn1-c1ccc(Cl)c(S(=O)(=O)N2CCOCC2)c1,active: 1.41 µM
8,FC(F)Sc1nc(-c2ccccc2)c(-c2ccccc2)n1C(F)F,"inconclusive: 29.1 µM [inhibitor, single point]"
9,Cc1ccccc1-c1nc2ccccc2c(=O)o1,"inconclusive: 29.1 µM [inhibitor, single point]"
10,NC(=O)C1CCN(c2nc3c(S(=O)(=O)c4ccccc4)nnn3c3ccccc23)CC1,"inconclusive: 25.9 µM [inhibitor, single point]"
11,CCCCOc1ccc(C(=O)N/C(=C\c2ccc(Br)cc2)C(=O)NC2CCCCC2)cc1,active: 5.17 µM
12,O=C(CN(Cc1cccs1)C(=O)CSc1nnc(COc2ccccc2)o1)NC1CCCCC1,"inconclusive: 25.9 µM [inhibitor, single point]"
13,COC(=O)c1nn(-c2ccccc2)c(Cl)c1/C=N/OCc1ccc(Cl)cc1Cl,active: 16.4 µM
14,CCOC(=O)C1(CC)CC(CSc2nc3ccccc3[nH]2)OC1=O (configuration not stated),"inconclusive: 13 µM [inhibitor, partial curve]"
15,CCCc1nc2c(nnn2Cc2ccccc2Cl)c(=O)[nH]1,inactive
16,CCN(CC)S(=O)(=O)c1ccc(N2CCOCC2)c(NC(=O)C(C)(C)C)c1,"inconclusive: 29.1 µM [inhibitor, single point]"
17,Cc1ccc(C)c(NC(=S)NCc2cccs2)c1,"inconclusive: 25.9 µM [inhibitor, single point]"
18,CC1CCCN(c2nc3c(c(=O)n(C)c(=O)n3C)n2CCSc2nc3ccccc3s2)C1 (configuration not stated),active: 16.4 µM
19,CCCOc1ccc(-c2c(C(=O)N/N=C/c3cccs3)nnn2-c2nonc2N)cc1,"inconclusive: 29.1 µM [inhibitor, single point]"
20,CCOC(=O)C1(CCOc2ccccc2)CCN(Cc2ccncc2)CC1,"inconclusive: 29.1 µM [inhibitor, single point]"
21,Cc1cccc(C(=O)Nc2sc(-c3ccccc3)cc2C(=O)O)c1,"inconclusive: 23.1 µM [inhibitor, single point]"
22,Cc1ccc([N+](=O)[O-])cc1NC(=O)CN(C1CCCCC1)S(=O)(=O)c1ccc(Cl)cc1,"inconclusive: 29.1 µM [inhibitor, single point]"
23,COc1cc(OC)cc(-c2c(C#Cc3ccsc3)c3cc(-c4ccc5c(c4)OCCO5)ccc3n2C)c1,inactive
24,CN(Cc1ccc(OC(F)F)cc1)C(=O)c1ccc(S(=O)(=O)N(C)c2ccccc2)cc1,"inconclusive: 23.1 µM [inhibitor, single point]"

row,Compound,Potency
1,CCc1cccc(NC(=O)CCS(=O)(=O)c2ccc3nc(C)sc3c2)c1,"inconclusive: 18.4 µM [inhibitor, single point]"
2,CC(C)c1nc(-c2c(N)n(C)c(=O)n(C)c2=O)sc1C(=O)C(C)(C)C,inactive
3,O=C(Nc1ccc2c(c1)OCO2)C1CC(=O)N(c2ccc(F)cc2)C1 (configuration not stated),inactive
4,Cc1oc2cc([N+](=O)[O-])c(O)c([N+](=O)[O-])c2c1C(=O)c1ccc(Br)cc1,"inconclusive: 29.1 µM [inhibitor, single point]"
5,Cc1nnc(N2C(=O)C(=O)/C(=C(/O)c3ccc4c(c3)OCCO4)C2c2ccc(F)cc2)s1 (configuration not stated),inactive
6,COc1cccc(C(=O)N2CCCC(CCC(=O)NCc3ccc(F)c(F)c3)C2)c1 (configuration not stated),"inconclusive: 18.4 µM [inhibitor, single point]"
7,COC(=O)c1ccc(OCC2c3cc(OC)c(OC)cc3CCN2C(=O)c2ccco2)cc1 (configuration not stated),active: 23.1 µM
8,CN1CCN(c2ccc(S(=O)(=O)N3CCCCC3)cc2NC(=O)Cc2c(F)cccc2Cl)CC1,"inconclusive: 29.1 µM [inhibitor, single point]"
9,Cc1cc(OC(=O)c2ccccc2Cl)cc(=O)n1C,inactive
10,O=C(NC(=S)NC1CCS(=O)(=O)C1)c1cccc([N+](=O)[O-])c1 (configuration not stated),inactive
11,Cc1nc2c3ccccc3nc(NNC(=O)CCC(=O)N3CCN(c4cccc(C(F)(F)F)c4)CC3)n2n1,active: 20.6 µM
12,O=C(Nc1cccc(F)c1)C1CCN(c2nc3ccccc3[nH]2)CC1,active: 23.1 µM
13,O=C(N/N=C/c1ccc(OCc2ccccc2)cc1)c1ccco1,"inconclusive: 2.31 µM [inhibitor, full curve]"
14,CCCCNc1nc2c(c(=O)n(C)c(=O)n2C)n1CCC,"inconclusive: 18.4 µM [inhibitor, partial curve]"
15,Cc1c(OCC(=O)NCCN2CCOCC2)ccc2c(-c3ccccc3)cc(=O)oc12,inactive
16,CC(=O)c1ccc(N(C(=O)Cn2nnc(-c3ccccc3)n2)C(C(=O)NC2CCCCC2)c2ccccn2)cc1 (configuration not stated),inactive
17,O=C(NCCS(=O)(=O)N1CCN(c2ccccc2F)CC1)c1ccc(F)c(F)c1,"inconclusive: 29.1 µM [inhibitor, single point]"
18,COc1ccc(CN2C(=O)c3oc4ccccc4c(=O)c3C2c2ccc(O)c(OC)c2)cc1 (configuration not stated),"inconclusive: 18.4 µM [inhibitor, single point] and inconclusive: 23.1 µM [inhibitor, single point]"
19,COc1ccc(CNc2ncnc3c2cnn3-c2ccc(C)c(C)c2)cc1,inactive
20,COc1ccc(C=C2OC(=O)C(C(C)=O)=C2O)cc1,"inconclusive: 2.91 µM [inhibitor, partial curve]"
21,COc1ccc(C)c(-n2c(=O)n(Cc3ccccc3)c(=O)c3[nH]cnc32)c1,inactive
22,Clc1ccc(Cc2nnc(-c3cccs3)o2)cc1,"inconclusive: 20.6 µM [inhibitor, single point]"
23,CCCc1cc(=O)[nH]c(SCC(=O)Nc2cc(S(=O)(=O)N3CCCCC3)ccc2Cl)n1,inactive
24,CCOC(=O)N1CCN(C(=O)/C(=C\c2ccc(SC)cc2)NC(=O)c2ccccc2)CC1,inactive

row,Compound,Potency
1,CCCCn1c(N)c(N(CCOC)C(=O)COC(=O)COc2cc(C)ccc2Cl)c(=O)[nH]c1=O,inactive
2,COc1ccc(/C=C/C(=O)Nc2cccc(S(=O)(=O)NC3=NCCCCC3)c2)cc1OC,active: 14.6 µM
3,Cc1csc(=O)n1CCC(=O)OCC(=O)c1ccc(Br)cc1,inactive
4,COc1ccc(C(C)=O)cc1Cn1c(C)c(C(=O)NCc2cccc(C(F)(F)F)c2)sc1=O,"inconclusive: 29.1 µM [inhibitor, single point]"
5,c1ccc(Cc2nnc3sc(-c4ccccn4)nn23)cc1,"inconclusive: 29.1 µM [inhibitor, single point]"
6,Cc1c(O)ccc(C(=O)CN2CCN(Cc3ccccc3)CC2)c1O,inactive
7,Oc1ccc(/C=N/Nc2nc(-c3ccccc3F)nc3ccccc23)c(O)c1,active: 5.8 µM
8,CC(C)c1ccccc1NC(=S)NC(C)c1ccccc1 (configuration not stated),"inconclusive: 29.1 µM [inhibitor, single point]"
9,O=[N+]([O-])c1ccc(N/N=C/c2cccc(O)c2O)cc1,"inconclusive: 20.6 µM [inhibitor, single point]"
10,COc1ccc(NC(=O)CCSc2ccc(F)cc2)cc1,"inconclusive: 16.4 µM [inhibitor, single point]"
11,CCOC(=O)c1cnc2c(Cl)cc(Cl)cc2c1NCCCN1CCOCC1,inactive
12,CN(C(=O)CO/N=C/c1ccc(Cl)cc1)c1ccccc1,inactive
13,CCCCn1c(-c2ccccc2)cnc1SCC(=O)NCCc1ccc(OC)c(OC)c1,active: 23.1 µM
14,CC12CCC(C(=O)N3CCN(C(c4ccccc4)c4ccccc4)CC3)(OC1=O)C2(C)C (configuration not stated),"inconclusive: 29.1 µM [inhibitor, single point]"
15,COc1ccc(C(CC(=O)N2CCCC2)c2c(O)cc(OC)cc2OC)cc1 (configuration not stated),"inconclusive: 29.1 µM [inhibitor, single point]"
16,Cn1cc(C(=O)c2ccccc2C(=O)O)cc1C(=O)C(Cl)(Cl)Cl,inactive
17,O=C(Oc1c(-c2ccccc2)c(=O)n2c3c(cccc13)CC2)c1ccccc1,"inconclusive: 25.9 µM [inhibitor, partial curve, poor fit]"
18,Cc1cc(C(C)(C)C)cc(C)c1COC(=O)CN1C(=O)NC2(CCCC2)C1=O,inactive
19,COc1ccc(C(=O)Nc2nnc(C(F)(F)F)s2)cc1,"inconclusive: 18.4 µM [inhibitor, single point]"
20,NC(=O)CC(NC(=S)NCc1ccccc1)C(=O)O (configuration not stated),inactive
21,CCCCSCCCNC(=O)C1CCC(CNS(=O)(=O)c2c(C)cc(C)cc2C)CC1 (configuration not stated),active: 14.6 µM
22,COc1ccc(C2CC(=O)c3ccccc3O2)cc1 (configuration not stated),"inconclusive: 29.1 µM [inhibitor, single point]"
23,O=C1/C(=C/c2ccc(N3CCOCC3)o2)SC(=Nc2ccccc2)N1CCc1c[nH]c2ccccc12,active: 2.91 µM
24,C=CCc1ccc(OCCCOc2ccc(C)cc2OC)c(OC)c1,"inconclusive: 16.4 µM [inhibitor, partial curve, poor fit]"
